# The supplement of paper PMC11417369
# The other results are listed elsewhere or left out.
# System: PfAP2-HC AP2 domain (GST-tagged)
# Assay: gcPBM binding intensity (ln(normalized median fluorescence intensity)); higher = stronger DNA binding
# Summary of the method: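 Using an Agilent 4 × 180k array, primer-extended double-stranded 36-bp intergenic genomic probes and negative controls were exposed for 1 h to GST-fused P. falciparum DNA-binding domains expressed in E. coli. Binding was carried out in 1× PBS with 1% milk, 0.2 mg/ml BSA, 0.5% salmon testes DNA and 0.03% Triton X-100, and protein was detected with Alexa488 anti-GST antibody and a 488 nm scan. Binding intensity is the highest Masliner-normalised natural-log median intensity across replicate spots of either probe orientation.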
row,Sequence,gcPBM binding intensity (ln)
1,GTATATATGTATGTATGTACTTATAAAGTTGCATAT [XGTACX_site5616],9.63
2,TCTACATCTGTATATAAACACACAACAAAAATGCTT [CACACA_site9271],9.63
3,ACTTTATTATATATTTGTACATATATTTTTAATTTC [XGTACX_site4144],9.96
4,TATTTATTGTGATACTTATATTATTTCATGATTAAT [CACACA_negctrl_site738],9.72
5,TATATATTTCAATAATGTACATATAATATATATATT [XGTACX_site4124],9.67
6,AATGTGTAGACACGCACACACAAAAAAATATTTATA [CACACA_site7384],10.2
7,ATATTATAAATTATAGGTACACACAAAAAAAAAAAG [XGTACX_site2637],10
8,AAGTTTTCTTAAAGATGTACTTTTTAAAAATAAAAT [XGTACX_site3063],9.24
9,ATATCAAGCTATGAGAAAAAAAAAAAGAAAAAAAAA [CACACA_negctrl_site1370],9.36
10,AAATATATTGCATATATACACACGTATATATATTAA [CACACA_site2759],9.66
11,TGATTCTTTTCAAAGTGTACAGTAATTTTTATGTAA [XGTACX_site8452],9.48
12,TATATAATTCAAAAATGTACATGAAATATAAATATT [XGTACX_site7984],9.71
13,TCTTCAAAGACACAATCACACACATACATAAATATA [CACACA_site8128],10
14,AATACGTTTCAAAAATGTACACATATATCATAAATA [XGTACX_site8962],9.55
15,ATCAAAAATGTTATATATATATATATATATATATAT [TGCATGCA_negctrl_site71],9.47
16,TTAAATAAAAAAATAACACACATATAAATCTATATG [CACACA_site7482],9.75
17,GCCATTAATTTATACACACACATTATAACTTTTTAT [CACACA_site6492],10.2
18,TATCAGCAATGGAAAACATGCAAAAAATTAATATAT [TGCATGCA_site623],9.48
19,AGTAATAAATTTTATACATGCATAAAAAAAAAAAAA [TGCATGCA_site661],9.73
20,TATAGCTTTCATTATACACACATCAAAAATTTAAAT [CACACA_site227],9.66
21,TTAAAAATCATTTAAGAACACACAAATATTTCCATT [CACACA_site8418],9.63
22,AACTTGTATTTATACACACACACACTAGCTTTTTTT [CACACA_site5132],10.4

row,Sequence,gcPBM binding intensity (ln)
1,AGAATTAAAAACAGTTGTACAAAAAGTTGTATAAAT [XGTACX_site411],10
2,TATATTTATTTTTAATGTACATATTTAAGAAAACTA [XGTACX_site4920],9.39
3,GACTCATTAAGGATTATTCCTAATGATCAAAAGAAC [CACACA_negctrl_site515],9.38
4,TTTCTTTGTATTTATAGTACATATTTTAATAACTGC [XGTACX_site6673],9.6
5,ATAATATTTTATTATACATGCAAATTATTATATATA [TGCATGCA_site40],9.47
6,TAAAAATTAAAAAGGGTGCAAAAAAAAAAAAAAAAA [GTGCAC_site9733],9.24
7,TATTAATTATAAGATGCATGTGCAAAAATATGTTCC [TGCATGCA_site51],9.75
8,GATTAAAATCAAAGGTGTACGCACAAATAAGTCCCA [XGTACX_site4360],9.82
9,CACCCTTTGTTTTAGAGTACATATGTATATACGTAA [XGTACX_site7964],9.76
10,TATATATATTTATGTACACACATATATACCTTTCAT [CACACA_site5479],9.94
11,TTTCCGGTAATATGGAGATATATGTGGGTTTTTTTT [GTGCAC_negctrl_site374],9.66
12,ACAAAATTTACAAAATGTACAAAGTATGTGTTTTAT [XGTACX_site6462],9.8
13,ATATTTTTTTTTTTCACACACATTTATATTGTATTA [CACACA_site5695],10.2
14,AGAAAAAAGAGGGATACACACAAACATATATTTATA [CACACA_site7122],10.5
15,TATTAAAATATTCTCACACACCAAAATATGTATGTA [CACACA_site6565],9.73
16,AAAAAAAAAAAAAAAAAAAGAAAAGAAAATAGGGTT [GTGCAC_negctrl_site421],9.45
17,ATTATATTAATTTATAGTACAATATTTATATATATG [XGTACX_site4668],9.57
18,TATATATTACTTTTTTGTACGAATTTTACAACTACG [XGTACX_site3473],9.78
19,AATATACATAACAAGGTGCAAAAAATATTGTTCATA [GTGCAC_site9499],9.85
20,TTATTATTATGATTATTATGATGATTATACAACTGT [TGCATGCA_negctrl_site241],9.57
21,AGGAGGAACAAACAAAACAATAAAAATTATAATAAA [GTGCAC_negctrl_site206],9.73
22,AAAAGACATTTTTTTTTATAAATACACACGTACGTG [TGCATGCA_negctrl_site281],9.68

row,Sequence,gcPBM binding intensity (ln)
1,TTCAAAGACACAATCACACACATACATAAATATACA [CACACA_site687],10.8
2,TTCCAAGAAATAATAGTGCATTATTCATTTTAATAA,9.25
3,GTAATCCACAAACACACACACATACACATATATATA [CACACA_site2728],10.6
4,ATCATTTTTAATAAATGTACAAGTTTTAAAAAAAAA [XGTACX_site7340],9.47
5,AAAAAAACAACATGCACACGCACACCCAAAAAAAGC [CACACA_site72],10.7
6,ATAATATTTTAGAGCAGTACACTTTTATATTTATTG [XGTACX_site5728],9.67
7,AGAGGAAAAATAAAAGGAAAAAAGAAAATAATATTG [CACACA_negctrl_site852],9.37
8,ATATATTACAATATATGTACTTAATTTGCTTAAATA [XGTACX_site7912],9.52
9,AAAATAAATATTACATGTACATATATATATATATAT [XGTACX_site8492],9.91
10,TAAAACAGAATGAGGAGTACAAAAAGAAGAAAAGGG [XGTACX_site1246],9.83
11,TACACATGTTTAAAATGTACGTTTTATAACACACAC [XGTACX_site8229],9.93
12,GGTAGGTGAATATATACACACATATATTATATATAT [CACACA_site1984],10
13,TTTTACAAGTATTGATAAATAAGAAATATATAAAAT [CACACA_negctrl_site529],9.42
14,AAAAAAAATTAAGCATGTATAAATATATATATATAT [CACACA_negctrl_site1540],9.67
15,GTGTATTTTGTGCGCACACACATGCAAAAAGAAATA [CACACA_site6660],10.6
16,TAACACATAAATAAATATATACATATATATAAAATA [CACACA_negctrl_site375],9.78
17,AATATATCATAATGATGTACAAGTAAAACCGTTACA [XGTACX_site4280],9.7
18,AATATATATATATATACATGCATATATTCCTTCCTT [TGCATGCA_site890],9.64
19,ATTCTTTTAAACAGTACACACACACCGATATATATA [CACACA_site8213],10.7
20,AAAAACTTATATGATACACACGATAAACAAAATAAA [CACACA_site1039],9.89
21,TTTGTGCCTATAAATTAACACACAGAAATATATAGA [CACACA_site8175],9.76
22,CAAAAATACATTATAATAATATGCACAATAATAAAT [XGTACX_negctrl_site263],9.88

row,Sequence,gcPBM binding intensity (ln)
1,GATCTATATATCATTACACACTTGAATTACTTAAAA [CACACA_site21],9.59
2,ATAAAATAAAATTGGTGTACTTTTGATAAAATAAAA [XGTACX_site4264],9.59
3,TTTTTTTTTTTTATTTGTACACATTTTCATATTTTT [XGTACX_site4406],9.81
4,TATATTTACTCTAAGTGTACATATTATTTTATAATA [XGTACX_site2046],9.53
5,TATATATATATGTGCACACATAAAGATATTATTTTT [CACACA_site3733],10.2
6,AAAAGTAAAAAAAGCACACACGAAAAAAAATAAAAA [CACACA_site5264],10.2
7,TCCATAAATAATTGTAGTACACATACTATGTGACAT [XGTACX_site7268],9.65
8,ATATATATATATATGTGTACATATAAGATAGAAGAA [XGTACX_site3198],10.2
9,TATTTATTTATAAATGCATGTCGCTCTTTTTATTAC [TGCATGCA_site626],9.96
10,AACTATAAAAGTTTTACACACTGTTTTTAAATAATG [CACACA_site7686],9.63
11,TTATGCATAAAAGGTGGTACTCCGTATATACATTCT [XGTACX_site4354],9.62
12,ATTATTATAGATATAACACACATAATTACATACTTA [CACACA_site6837],9.72
13,CAGTTGTTAATTTGTGTGCACCAAATATTATACATA,9.75
14,ATAATTCCATAAAATAGACACACGAATGTATAATAT [CACACA_site477],9.89
15,ACATATGAATATAATACACACTTGTATTCTTAATAT [CACACA_site5085],9.79
16,TGTAGATAAAATAAACGTACGTATTGATTTTTTTCA [XGTACX_site1610],9.55
17,TATTTGTAAAGACATGCATGGTACTTTTAAAACATA [TGCATGCA_site7],9.6
18,TTAATATTTGTTCTGATCCTTTTATTCAACTTTTTT [CACACA_negctrl_site536],9.69
19,TGGTAATACCCATACACACACACATACACATATATA [CACACA_site8877],10.3
20,TTTTCTTTCTTGTTTCGTATATTATAAAAAAAAAAG [CACACA_negctrl_site854],9.17
21,TATTTGGGTATTTTTACACACATTAAAATATATATA [CACACA_site5800],9.67
22,GTATTTTGCATAAATGCATGTAAATATATACCTACC [TGCATGCA_site957],9.56
